PubChem BioAssay AID1508624 (National Center for Advancing Translational Sciences (NCATS), 2021)
About 120 (0.25%) of roughly 48,000 compounds were called active. Inconclusive results (about 4%) are left out. The call rests on the fitted dose curve; in most records, active means well fitted activation curve with a large enough effect; inconclusive means small, poorly fitted or top-dose-only effect, or another doubt; inactive means no such curve, though single readings can be large or run the other way. This is one part of the list.

Experiment: Primary qHTS for Identification of Small Molecule Activators of Huntingtin-Antisense Promoter Activity; further: nearly all actives have a fitted effect of over 55% in size
Details: HEK293 HTT-AS promoter firefly luciferase reporter (activity 0% = vehicle and -100% = no light), 24 h; series mostly up to 57.5 µM; activity change, positive = activation: at the top concentration
Method in brief: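 HEK293 cells carrying firefly luciferase reporters were seeded at 2,500 per well in Opti-MEM and cultured for 24 h. They were then treated with compounds at up to 57.5 uM final for 24 h at 37 degrees C before Dual-Glo luminescence readout.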

Activity change, positive = activation, inactive:
CCN1CCC(N(Cc2ccc3c(c2)OCO3)C(=O)Nc2ccccc2OC)CC1 -8.41%, CCOC(=O)c1c(C)[nH]c(CCC(=O)NCc2ccccc2C)c1C -9.77%, COc1cccc(C2CC(=O)N3CN(C4CCCCC4)CSC3=C2C#N)c1 (stereo not drawn) -16.2%, COc1cc(NC(=O)C(CCS(C)(=O)=O)N2Cc3ccccc3C2=O)cc(OC)c1OC (stereo not drawn) -0.901%, CCCN1C(=O)c2[nH]nc(-c3ccc(F)cc3)c2C1c1ccccn1 (stereo not drawn) -17.4%, CC1CN(C(=O)N2CCC(C(=O)NC3CCCCCC3)CC2)c2ccccc2O1 (stereo not drawn) -23.9%, O=C(c1ccco1)n1nc(-c2ccccc2)nc1NCc1ccccc1Cl -10.7%, CC(=O)Nc1ccc(S(=O)(=O)NCCc2csc3nc(-c4cccc(C)c4)nn23)cc1 -30.4%, Cc1ccc(N(Cc2cccs2)C(=O)COc2ccccc2[N+](=O)[O-])cc1 -31.3%, Cc1cccc(-c2nc(Cn3c(SCc4cc(C)ccc4C)nc4ccncc43)c(C)o2)c1 -23.1%, CCc1ccc(NC(=O)CSc2nc3ccsc3c(=O)n2C(C)CC)cc1 (stereo not drawn) -32.8%, O=C(NCc1ccccc1Cl)C1CCC(CNS(=O)(=O)c2ccc(Br)s2)CC1 (stereo not drawn) -10.5%, COc1ccc(CCNC(=O)c2nn(C)c3c2CSc2ccccc2-3)cc1OC -21.8%, O=C(NCc1ccccc1)C(=O)NCC(c1cccnc1)N1CCN(c2ccccc2)CC1 (stereo not drawn) -32.1%, Cc1ccc(-c2nn3c(-c4ccc(C)cc4)nnc3c3ccccc23)cc1 -12.5%, CNS(=O)(=O)CCc1ccc2[nH]cc(C3CCN(C)CC3)c2c1, COc1ccccc1-n1c(SCC(=O)Nc2ccc(C)cc2)nc(O)cc1=O 3.01%, O=C(CCCn1c2ccccc2c(=O)c2ccccc21)Nc1ccc(F)cc1Cl -27.3%, COc1cc(CN(C(=O)c2oc3ccccc3c2C)C2CCS(=O)(=O)C2)cc(OC)c1OC (stereo not drawn) 8.07%, O=c1c2cc3c(nc2ncn1Cc1ccccc1F)CCCC3 -5.16%, CCOC(=O)c1cnc2c(ccc3ccccc32)c1Nc1ccc(OC)c(OC)c1 -25%, CCOc1ccc(Cn2c(CNS(=O)(=O)c3ccc([N+](=O)[O-])cc3)nc3cccnc32)cc1 -19.4%, COc1ccc(C(=O)NCCSc2c(C)[nH]c3ccccc23)cc1 -39.5%, COCCn1ccc2c(OCC(=O)NCc3ccc(F)cc3)cccc2c1=O -15.8%, Cc1ccc(NC(=O)Nc2nnc(SCC(=O)N3CCC(C)CC3)s2)cc1 -29.2%, Cc1ccc(N2CC(c3nnc(NC(=O)c4ccco4)s3)CC2=O)cc1C (stereo not drawn) -17.2%, O=C(NC1CCCC1)c1ccc(CSc2nc3ccncc3n2Cc2ccc(F)cc2)cc1 -16.6%, COc1ccc(-n2cc(C(=O)NC(C)c3ccccc3)c3ccccc3c2=O)cc1 (stereo not drawn) 18%
